Laboratory results taken from US12551573B2, “Compositions and methods for the targeting of PCSK9” (Scribe Therapeutics Inc., priority 2022, dated 2026).

B1: DOMAIN_13468 (protein, listed as Phascolarctos cinereus)
chain: PQESVTFKDVAVDFTWEEWGYLDTSQKELYQEVMLENYRNLVSLGFVVAKPDVISQLEQGEAPWRPEGRFPRSRHPDSDTR
B2: DOMAIN_12631 (protein, listed as Macaca fascicularis)
chain: SQESVAFEDVAVYFTTKEWAIMVPAERALYRDVMLENYEAVAFVVPPTSKPALVSHLEQGKESCFIRPQGVLSRSDWRAGL
B3: DOMAIN_11331 (protein, listed as Capra hircus)
chain: PKVPVSFEDVAMYFTKTEWKLLDHRQRKLYKQVMLENYHHLVSLGFSFAKPQLVIQLEQGQKPWVADVHRMRITTGMQAGD
B4: DOMAIN_11403 (protein, listed as Suricata suricatta)
chain: KPGVLTFADVAVYFSSEEWGCLRPAQRALYRDVMRETYGHLGALGCAGPKPALISWLERNTDDWEPAALDPQECPKRVTVQ
B5: DOMAIN_11567 (protein, listed as Zalophus californianus)
chain: GHALLTFRDVAIEFSQEEWGCLNHTQRELYRDVMLENYGHLLFLGLIVSKPDLVSFLEQTKDPWDGKRKKTVAFHPGLALS
B6: DOMAIN_11356 (protein, listed as Sus scrofa)
chain: AHGSVMFSDVSIDFSQEEWEYLNLEQRDLYRNVMLENYSNLVSLGCFISKPDVISLLEQGKEPWKVVRKGRRPYSGLETKK
B7: DOMAIN_11130 (protein)
chain: MGLLTFRDVAIEFSLEEWQCLDTAQKNLYRNVMLENYRNLAFLGIAVSKPDLIICLEKEKEPWNMKRHEMVDEPPDICPHF
modifications: Nomascus leucogenys
B8: DOMAIN_11381 (protein)
chain: MVQESVTFKDVAVLFTQEEWGQLSPAQRALYRDVMLENYSNLVSLGLLGPKPDMFSQLEKREVWMPEDTPGGFCLDWMTMP
modifications: Nomascus leucogenys
B9: DOMAIN_11282 (protein, listed as Suricata suricatta)
chain: KPGAVSFADVAVYFSPEEWGCLRPAQRALYRDVMRETYGHLGALGFPGPKPALISWMEQESEESEAWSPAAKDPEEGESLG
B10: DOMAIN_11225 (protein, listed as Capra hircus)
chain: IKSPLTFGDVAVEFSGEEWAWLDSAQRSLHRSVMLENYRNLASLGLCLSKPEMISSLEQRKEPWAVKRKSTSGKCPDLQTL
B11: DOMAIN_11110 (protein, listed as Sus scrofa)
chain: QAEVTFEDVAVLLSREEWGRLGPAQKGLYRDVMLETYRNLVSLGAGHAGPKPGVIAQLERGDEPWVLDMQGREQSTIDGSA
B12: DOMAIN_11461 (protein, listed as Equus caballus)
chain: WKELLSFEDVALFFTREEWNQLDWAQKDLYRDVMLENYRNLILLGFQFPKPEVICQLEQWEEPWILDLPRAGTRKASGSAC
B13: DOMAIN_11505 (protein, listed as Trichechus manatus)
chain: AHELVMFRDVAIDFSKEEWECLDLEQRDLYRDVMLENYSNMVLLGLCIHQPDMFSLLEKGKEPWKVLRYQTRGPCPDMQSR
B14: DOMAIN_11204 (protein)
chain: SVAFEDVAVNFTQEEWALLSPSQKNLYRDVMLETFRNLASVGIQWKDQNIENLYQNLGIKLRSLVERLCGPQEGSEHRETF
modifications: Nomascus leucogenys
B15: DOMAIN_11289 (protein, listed as Suricata suricatta)
chain: THGLVMFKDVAIDVSQEEWECLNPTQRSLYRDVMLENYSNLVSLGLSLSKPAVISSLEQGMEPWMVVREVTGKQCPDLVSR
B16: DOMAIN_11332 (protein, listed as Capra hircus)
chain: ARESVMFSDVSIDFSLEEWEFLNLEQRDLYRDVMLENYSNLVSLGCFISKPDVISLLEQGKEPWNVVRKGRRQYPDLETNY
B17: DOMAIN_11554 (protein)
chain: GSLTFRDVAIEFSLEEWQCLDTAQQNLYRNVMLENYRNLVFLGIAAPKPDLIIFLEQGKEPWNVKRHEMVEEPPVICSHFA
modifications: Nomascus leucogenys
B18: DOMAIN_11132 (protein, listed as Bos indicus)
chain: TLESVTFQDVAVDFTQEEWALLDTSQRTLFREVMLENISHLVSVGNQLYKSDVISHLEQGEQLSREGLGFLQGQSPVISDR
B19: DOMAIN_11413 (protein, listed as Sus scrofa)
chain: VREPLTFEDVAVNFTQEEWQQLDPAQKTLHRDVMLEIYSHLVSVGCSGIKPDIISKLEHGEDPWIRESELPRWTYSDREKS
B20: DOMAIN_11433 (protein, listed as Neophocaena asiaeorientalis)
chain: PQVLVSFEEVAVLLSQEEWGHLGPDQKRLYRDVMLETYGNLVSLGLQGSKPDVISKLEQGEEPWAPHSPRIEGSWIWRRRR
B21: DOMAIN_11534 (protein, listed as Sus scrofa)
chain: AQESVMFSDVSIDFSQEEWECLNDDQRALYRDVMLENYSNLVSMGHSISKPDVISFLEQGKEPWLVDRELTRGQWPVLESR
B22: DOMAIN_11162 (protein, listed as Mandrillus leucophaeus)
chain: FQGSISFKDVTVGFSQEEWQHLNPSQRALYRDVMLENYSNLVSVGYCVHKPEVISRLEQGEEPWRLEEEFPSQSFSEVWTA
B23: DOMAIN_11040 (protein, listed as Sus scrofa)
chain: AQESVMFSDVSIDFSQEEWECLNDDQRALYRDVMLENYSNLVSMAGHSISKPDVISFLEQGKEPWLVDRELTRGQWPVLES
B24: DOMAIN_11466 (protein, listed as Suricata suricatta)
chain: AQAPLSFEDVAVGFSPEEWQLLAPAQKDLYRDVMLENYRNLVSLGYQASKPDSLFQLEHGGPPWAVGGAAPRPPCAEEIWE
B25: DOMAIN_11446 (protein)
chain: YQEMVTFEDVAVHFTKTEWTGLSPAQRALYRSVMLENFGNLTALGYPVPKPALISLLEGGDMDWGLEAQDDPPAERTKNVC
modifications: Nomascus leucogenys
B26: DOMAIN_11178 (protein, listed as Sus scrofa)
chain: MAFRDVAVAFSQKEWKLLSPAQRTLYRDVMLENYSLLVSLGIAFPKPKLITQLEQGDEPWREESECFLDLYSEPRTEFQPC
B27: DOMAIN_11227 (protein, listed as Capra hircus)
chain: SQVSVTFEDVAVLFTRDEWRKLAPSQRNLYQDVMLENYSNLVSLGLPFSKPEVISLLQQGEDPWKVEKESPGGSSLGEWSS
B28: DOMAIN_11291 (protein, listed as Suricata suricatta)
chain: SKLPVTFGDLAIYFSQEEWEWLSPIQKDLYEDVMLENYQNLVSLGLSFRRPNVITLLEKGKAPWMVEPVRKRRGLDSKSKC
B29: DOMAIN_11053 (protein)
chain: WPESVTFEDVAVYFTQNQWASLDPAQRALYREVMLENYANVASLVAFPFPKPALISHLERGEAPWGPDPWDTEIPRGISQG
modifications: Nomascus leucogenys
B30: DOMAIN_11158 (protein, listed as Chrysochloris asiatica)
chain: MLAPVTFEDVTVVFTEAEWVTLSTEQKNLYKEVTLETYRNLLSLAEPTPETYPGPSCLLPFSCQQFLSQHVLQIFPGVCAE
B31: DOMAIN_11034 (protein, listed as Mandrillus leucophaeus)
chain: ACESITFGDVAIDFSHQEWEYLNLVQKTLYQEVMMENYDNLVSLGHFISKPDLITLLEQGKEPWMIVGEETRGECTDLDSR
B32: DOMAIN_11069 (protein, listed as Capra hircus)
chain: RPRAVKFGDVALYFSREEWGCLRPAQRALYRDVMQETYGHLGALGCAGPKPALISWLERNTDDWETAALDPQECPKGVAVQ
B33: DOMAIN_11393 (protein, listed as Suricata suricatta)
chain: B4 chain with K1R, G3R, V4A, L5V, T6K, S16T
B34: DOMAIN_11502 (protein, listed as Trichechus manatus)
chain: IHESVTFEDVAVNFTDREWQCLTHAQRHLYKDVMLENYGNMVSLGFPFPKPPLISHLERETEPWVQDLQDRESLSSFYPVS
B35: DOMAIN_11401 (protein, listed as Suricata suricatta)
chain: DQESLTLEDVAVDFSREEWQLLAPAQKDLYRDVMLENYRNLVSLGYQASTPDALCMLERGEGPWATGEAVRGGARPETRKV

These molecules were tested on HBEGF locus. Conditions: high-throughput screen of dXR repression of the HBEGF gene; change in abundance of each domain in the library before and after diphtheria toxin selection.
Type: cell-based, human

| Molecule | Log2 (fold change) |
| --- | --- |
| B1 | 4.1548 |
| B2 | 3.6926 |

Same assay, conditions: repressor domain in dXR, repression of the HBEGF gene; abundance of domain in library after vs before diphtheria toxin selection

| Molecule | Log2 (fold change) |
| --- | --- |
| B3 | 3.0611 |
| B4 | 3.4222 |
| B5 | 3.4239 |
| B6 | 2.6549 |
| B7 | 2.3487 |
| B8 | 3.1705 |
| B9 | 3.536 |
| B10 | 3.606 |
| B11 | 3.6632 |
| B12 | 2.508 |
| B13 | 3.0969 |
| B14 | 3.5793 |
| B15 | 2.69 |
| B16 | 3.0468 |
| B17 | 3.0498 |
| B18 | 3.5671 |
| B19 | 2.1814 |

| Molecule | Log2 (fold change) |
| --- | --- |
| B20 | 3.3986 |
| B21 | 3.8118 |
| B22 | 3.2804 |
| B23 | 3.5161 |
| B24 | 3.4716 |
| B25 | 2.6971 |
| B26 | 2.4845 |
| B27 | 2.7556 |
| B28 | 4.0373 |
| B29 | 3.677 |
| B30 | 2.6889 |
| B31 | 2.2541 |
| B32 | 3.2745 |
| B33 | 3.4256 |
| B34 | 3.601 |
| B35 | 2.6345 |

Positions count from the first letter of the chain named.
